The text below walks through data of PubChem BioAssay AID488969 (Vanderbilt High Throughput Screening Facility, 2010).

SMILES strings stand for the structures. Over roughly 110,000 compounds, “z-score” has its median near -0.1; the highest 2% begin near 2. Some of the results follow. Activity calls are given as the source filed them.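 Rule for the calls: active = z-score in the third read window above 3 or below -3; inactive = the rest.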

The test concerns the target Metabotropic glutamate receptor 8 (Rattus norvegicus) (UniProt P70579). As to the kind of experiment: mGluR8 Gi/Go-coupled signaling modulation – cell-based, rat, thallium flux, HTS, primary screen (AID 488969). The note with it: HEK293 rat mGluR8, GIRK (G protein-gated inwardly rectifying potassium channel) thallium flux, FluoZin2; at 10 µM; stronger effect = higher value; submaximal glutamate (EC20) added with thallium.
Sequence of UniProt P70579 (P70579 whole entry, looked up): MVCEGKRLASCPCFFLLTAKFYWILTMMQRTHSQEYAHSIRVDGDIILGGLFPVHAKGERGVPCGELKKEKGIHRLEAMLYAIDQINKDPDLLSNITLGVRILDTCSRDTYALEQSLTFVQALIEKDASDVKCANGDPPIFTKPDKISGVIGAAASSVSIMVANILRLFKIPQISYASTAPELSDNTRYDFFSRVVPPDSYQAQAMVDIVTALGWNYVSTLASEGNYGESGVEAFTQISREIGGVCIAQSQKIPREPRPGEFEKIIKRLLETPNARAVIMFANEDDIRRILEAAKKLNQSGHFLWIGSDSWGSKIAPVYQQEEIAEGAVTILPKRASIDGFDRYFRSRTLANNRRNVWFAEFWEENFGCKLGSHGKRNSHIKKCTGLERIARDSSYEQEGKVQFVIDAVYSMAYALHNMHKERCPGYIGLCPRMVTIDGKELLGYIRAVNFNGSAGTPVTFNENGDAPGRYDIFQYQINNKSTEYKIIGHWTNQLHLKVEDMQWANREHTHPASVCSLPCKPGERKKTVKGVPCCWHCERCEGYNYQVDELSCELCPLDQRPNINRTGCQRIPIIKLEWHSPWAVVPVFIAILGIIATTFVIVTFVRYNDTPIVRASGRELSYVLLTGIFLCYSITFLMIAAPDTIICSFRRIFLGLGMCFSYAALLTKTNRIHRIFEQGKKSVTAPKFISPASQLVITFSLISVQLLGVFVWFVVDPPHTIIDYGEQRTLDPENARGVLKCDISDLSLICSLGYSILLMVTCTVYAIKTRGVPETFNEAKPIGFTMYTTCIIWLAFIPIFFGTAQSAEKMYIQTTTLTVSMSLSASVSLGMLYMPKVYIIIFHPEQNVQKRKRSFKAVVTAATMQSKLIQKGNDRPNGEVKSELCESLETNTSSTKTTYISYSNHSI
Take `CCCCCCCCC(=O)NCCOc1ccccc1`: the z-score is -0.41.

`CCC(C)(C)C(=O)Nc1ccc(C(N)=O)cc1` yielded a z-score of -0.203.

In the case of `Oc1ccc(/C=N/N=C(c2ccccc2)c2ccccc2)c(O)c1O`, the z-score was -0.213.

`O=C(NC1CCCCC1)C(c1cccs1)N(C(=O)c1ccco1)c1ccc2c(c1)OCCO2` (stereo not given): the z-score is -0.214.

`NS(=O)(=O)c1ccc(NC(=O)COC(=O)CCC2CCCCC2)cc1` had a z-score of -0.157.

`Cc1ccc(-c2cc(C(=O)Nc3nccs3)c3ccccc3n2)c(C)c1`: the z-score is -0.126.

On to `Cc1cc(NC(=O)CCNS(=O)(=O)c2cc(Br)cnc2N)ccc1Br`, for which the z-score is 0.393.

`CCOC(=O)Cc1c(C)nc2c(-c3ccccc3)c(C)[nH]n2c1=O` yielded a z-score of 0.059.

`COc1cc(/C=N\NC(=O)c2ccc(=O)[nH]n2)cc(OC)c1OC` yielded a z-score of 0.00269.

Molecule `CCOc1cc(/C=N\Nc2nc(Nc3ccccc3)nc(N3CCOCC3)n2)ccc1OC(=O)c1ccco1` displayed a z-score of -0.408.

In turn, `CCOc1cc(C)ccc1OCc1nnc(SCC(=O)c2cccc([N+](=O)[O-])c2)n1CC` showed a z-score of -0.204.

`O=c1ccc(S(=O)(=O)N2CCC(Cc3ccccc3)CC2)c[nH]1` registered a z-score of 0.356.

In turn, `Cc1ccc(S(=O)(=O)Cn2nnnc2C(C(C)C)N2CCc3ccccc3C2)cc1` (stereo not given) yielded a z-score of -0.19.

`CCOC(=O)Cc1c(C)nc2cc(-c3ccc(Cl)cc3)[nH]n2c1=O` had a z-score of -0.0742.

Regarding `COc1cccc2cc(C(=O)C3=C(O)C(=O)N(CCN(C)C)C3c3ccc(F)cc3)oc12` (stereo not given), the z-score turned out to be 0.329.

For the molecule `CON=C1CCN(c2ncc(C(F)(F)F)cc2Cl)CC1`, the z-score was -0.0727.

In turn, `CCCn1c(NCCO)nc2ccccc21` returned a z-score of -0.0823.

In the case of `O=S(=O)(c1cccs1)N1CCc2ccccc2C1`, the z-score is -0.297.

As for `Oc1nc(Nc2ccc(Cl)cc2Cl)sc1/C=C1\C=Nc2ccccc21`, the z-score was -0.177.

Take `CCOc1ccc(S(=O)(=O)N2CCN(c3ccc(OC)cc3)CC2)c2cccnc12`: the z-score is -0.846.

`Cc1ccc(CNC(=O)C(=O)NCCC2=CCCCC2)cc1` gave a z-score of -0.102.

The molecule `COc1ccc(CCN(C(=O)C(F)(F)F)C(C(=O)NC2CCCCC2)c2cccs2)cc1` (stereo not given) gave a z-score of -0.557.

`Cc1ccccc1NC(=O)c1nc[nH]c1C(=O)NCc1ccccc1` came in with a z-score of 2.57.

Take `Cc1ccccc1N1C(=O)CC(N(O)c2ccccc2)C1=O` (stereo not given): the z-score is -0.314.

Consider `COc1ccc(-n2cnc(N)c2C(=O)c2cccc([N+](=O)[O-])c2)cc1`, for which the z-score was -0.2.

`CC(=Nc1cccc(C)c1)c1sc2ccccc2c1O`: the z-score came out at 0.348.

`COC(=O)c1ccc2c(=O)n3c(nc2c1)SCC(c1ccccc1)=N3` came in with a z-score of 0.163.

With `Brc1cccc(-c2nnc(-c3ccccc3)o2)c1`, the z-score stood at 0.271.

`CCC(CC)C(=O)Nc1cccc(C(=O)Nc2nccs2)c1` gave a z-score of -0.197.

The molecule `Cc1nn(CC#N)c(=O)n1-c1ccccc1F` registered a z-score of 0.142.

For the molecule `Cc1cccc(NC(=O)c2sc3nc(N)c(C#N)cc3c2N)c1`, the z-score was 0.418.

On to `CCn1c(C)c(C(C)=O)c(N2CCN(c3cccc(Cl)c3)CC2)nc1=S`, for which the z-score was -0.46.

Molecule `O=C(NCc1ccco1)N1c2ccccc2Sc2ccccc21` registered a z-score of -0.113.

In the case of `O=C1CC(c2ccccc2)CN1S(=O)(=O)c1ccccc1` (stereo not given), the z-score came to 0.00794.

`COc1ccc(OC)c(C(=O)CSc2nnc(Cc3cccs3)n2C)c1` came in with a z-score of 0.123.

Molecule `Clc1cccc(-c2cc3nc4c(c(N5CCN(c6cnccn6)CC5)n3n2)CCCC4)c1` displayed a z-score of -0.109.

`COc1ccc(C2SCC(=O)N2c2c(C)n(C)n(-c3ccccc3)c2=O)cc1` (stereo not given) came in with a z-score of 0.975.

The molecule `O=C(CO/N=C/c1cccc([N+](=O)[O-])c1)Nc1ccc2ccccc2c1` came in with a z-score of -0.191.

In the case of `Cc1ccc(SCC(=O)NCCN2C(=O)CSC2=O)cc1C`, the z-score was -0.359.

`CCNC(=S)NN=C1CCC(C(C)(C)C)CC1` (stereo not given) had a z-score of 0.883.

`COc1ccc(Cn2c(N)c(C#N)c3nc4ccccc4nc32)cc1OC` returned a z-score of -0.144.

In turn, `O=C(Nc1cccnc1Cl)C1c2ccccc2Oc2ccccc21` returned a z-score of -0.112.

For the molecule `COCCCn1nnnc1SCC(=O)N1CCCC1`, the z-score was determined as 0.0657.

The molecule `COc1cc(-c2nc(N)n[nH]2)cc(OC)c1OC` returned a z-score of 0.486.

On to `NS(=O)(=O)c1ccc(NC(=O)CSc2ccc3ccccc3n2)cc1`, for which the z-score amounted to 0.71.

`Cc1noc(C)c1Cc1ccc(O)cc1` displayed a z-score of 0.0375.

The molecule `CN(C)c1cccc2c(S(=O)(=O)N3CCOCC3)cccc12` had a z-score of 0.189.

As to `O=C(CN1C(=O)NC2(CCCCCCC2)C1=O)N1CCc2ccccc2C1`, the z-score is 0.404.

For `c1ccc2c(c1)NC(c1ccncc1)n1c-2nc2ccccc21` (stereo not given), the z-score was determined as 0.38.

For `Cc1[nH]nc(-c2ccc(OCc3cnn(-c4ccccc4)c3)cc2O)c1Oc1ccc(F)cc1`, the z-score came to 0.0227.

The molecule `Cc1cc(NC(=O)CCCC(=O)OCC(F)(F)C(F)F)cc(C)c1C(=O)O` returned a z-score of 0.0155.

`CC1(C)Cc2cccc(OCC(O)CN3CCN(c4ccccn4)CC3)c2O1` (stereo not given) registered a z-score of -0.193.

In turn, `Clc1cccc(-c2ccnc3nc(-n4cccc4)nn23)c1` showed a z-score of -0.62.

Molecule `CCN(CC)C(=O)Cn1c(=O)n(-c2ccccc2)c(=O)c2c3c(sc21)CCC3` registered a z-score of -0.395.

With `Cc1ccc(-c2nn3c(C)nnc3c3ccccc23)cc1S(=O)(=O)NCc1ccco1`, the z-score is -0.674.

Consider `CCOC(=O)c1oc2nc(CC(C)C)c3c(c2c1N)CCC3`, for which the z-score was -0.16.

Molecule `Cc1ccc(S(=O)(=O)N2Cc3ccccc3CC2C(=O)Nc2ccc3c(c2)OCO3)cc1` (stereo not given) returned a z-score of -0.0374.

The molecule `COc1cc2c(C)nc(C)c(C#N)c2cc1OC` had a z-score of -0.0127.

In turn, `Cc1ccc(C(CCN)c2ccco2)cc1` (stereo not given) showed a z-score of 0.345.

Molecule `COc1ccc(S(=O)(=O)N2CCOCC2)cc1C(=O)Nc1ccon1` had a z-score of -0.151.

`O=C(CSc1nccn1-c1cccc(Cl)c1)NC1CCCC1` returned a z-score of -0.421.

Molecule `O=C(NCCO)C(F)(F)C(F)(F)C(F)(F)OC(F)(C(=O)NCCO)C(F)(F)F` (stereo not given) showed a z-score of -0.00196.

`COc1ccc(/C=N/NC(=O)CN(C2=NS(=O)(=O)c3ccccc32)c2ccccc2)cc1` gave a z-score of -0.0882.

As to `O=C(c1cc2ccccc2oc1=O)N(c1ccccc1)C1C=CS(=O)(=O)C1` (stereo not given), the z-score was determined as 0.129.

As for `Cc1c(C(=O)OCC(=O)c2c(N)n(CC(C)C)c(=O)n(C)c2=O)oc2ccccc12`, the z-score was -0.0376.

The molecule `Fc1ccc2c(c1)C(c1ccncc1)=NNC(c1ccc(Cl)cc1)=N2` yielded a z-score of -0.384.

For the molecule `Cc1ccc(CN2C3=NCCCN3c3ccccc32)cc1`, the z-score was active: 3.51.

With `Cc1cccc2cc(C#N)c(SCc3nnc(-c4ccccc4[N+](=O)[O-])o3)nc12`, the z-score was determined as 0.1.

Molecule `Cc1ccc(C(=O)Nc2ccc(Br)cc2)cc1S(=O)(=O)Nc1ccccn1` registered a z-score of -0.604.

The molecule `CCOc1ccc(S(=O)(=O)NNC(=S)Nc2ccc(Br)cc2)cc1` returned a z-score of -0.268.

Regarding `CC1(C)CC(=O)C(C(=S)Nc2ccc(F)cc2)=C(NCCN2CCOCC2)C1`, the z-score was -0.128.

Molecule `CCN(CC)S(=O)(=O)c1ccc(N(C)Cc2cccnc2)nc1` had a z-score of 0.0198.

Regarding `Cc1cc(C)cc(C(=O)N2CC(=O)Nc3ccccc32)c1`, the z-score is 0.499.

With `COc1ccc(C2=NOC(C(=O)Nc3cc(Br)ccc3O)C2)cc1OC` (stereo not given), the z-score is -0.876.

Molecule `Cc1nc(N2CCN(C(=O)c3ccco3)CC2)c2c3c(sc2n1)CCCC3` displayed a z-score of -0.769.

The molecule `COc1ccc(CN2CCC(C(=O)NCCc3ccc(OC)c(OC)c3)CC2)c(OC)c1` displayed a z-score of -0.218.

`O=C(CSc1nc2cc(Cl)ccc2o1)N1CCOCC1` had a z-score of 0.174.

Regarding `Nn1c(SCC(=O)NC(=O)NCc2ccco2)nnc1-c1ccc(OC(F)F)cc1`, the z-score was -0.503.

Molecule `N#CC1C(=O)NC(N2CCN(c3ccccc3)CC2)=NC12CCCCC2` (stereo not given) displayed a z-score of 0.568.

Molecule `O=C(NCCCN1CCOCC1)c1ccc(Cl)s1` came in with a z-score of -0.038.

On to `O=C(O)CC(=O)Nc1ccccc1`, for which the z-score came to 0.399.

With `Cc1cc(=O)oc2c(C(=O)/C=C\c3cccs3)c(O)ccc12`, the z-score was -0.288.

Molecule `CCc1cccc(CC)c1NC(=O)C1SC(=Nc2ccccc2C)C(c2nc3ccccc3s2)=C1N` (stereo not given) came in with a z-score of -0.198.

On to `O=C(C1COc2ccccc2O1)N1CCN(c2ccccc2F)CC1` (stereo not given), for which the z-score came out at 0.377.

Molecule `O=C1Cc2ccccc2C(=O)N1Cc1ccccc1` came in with a z-score of -0.415.

On to `COc1ccc(/C=N/N=C2\SC(CC(=O)O)C(=O)N2c2ccccc2)cc1` (stereo not given), for which the z-score was -0.0303.

Molecule `COc1ccc(CNC(=O)COC(=O)[C@H](Cc2c[nH]c3ccccc23)NC(=O)c2cccs2)cc1` displayed a z-score of 0.0349.

With `COc1ccc(C(=O)Nc2nccs2)cc1[N+](=O)[O-]`, the z-score turned out to be 0.0439.

For the molecule `COc1ccc(CSCC(=O)Nc2ccc(S(=O)(=O)N3CCCCCC3)cc2)cc1`, the z-score is -0.0163.

In turn, `N#CC(C#N)=C/C(C#N)=C(/N)N1CCN(c2ccc(Cl)cc2)CC1` registered a z-score of -0.494.

For `CCN(CC)S(=O)(=O)c1csc(C(=O)OCC(=O)c2ccccc2)c1`, the z-score is -0.217.

For the molecule `CCOC(=O)N1CCC(NC(=O)c2cc(-c3ccc(F)cc3)[nH]c2C)CC1`, the z-score was -1.17.

Regarding `CC(NC(=O)C12CC3CC(CC(C3)C1)C2)C(=O)NCCN(C)C` (stereo not given), the z-score is -0.0417.

As to `CSc1cccc(NC(=O)c2ccc(Cl)nc2)c1`, the z-score stood at 0.136.

The molecule `CCCCc1ccc(NC(=S)NN2CCOCC2)cc1` gave a z-score of 0.543.

For the molecule `C=CCN1C(=O)C(Cc2ccc(OC)cc2)S/C1=N\N=C\c1cccs1` (stereo not given), the z-score was -0.136.

For `O=C(Cc1cccc2ccccc12)N/N=C/c1ccc(Sc2cccc3cccnc23)o1`, the z-score is 1.32.

`COc1cc(C(=O)N2CCN(C/C=C/c3ccccc3)CC2)cc(OC)c1OC` gave a z-score of 0.0718.

In the case of `Cc1ccc(NC(=O)C2C3/C=C\CCCCC32)cc1` (stereo not given), the z-score was -0.169.

Molecule `CC(C)C(=O)Nc1cccc(-c2cnc3ccccc3n2)c1` showed a z-score of -0.661.

In turn, `Cc1nc2ccccn2c1C(=O)N/N=C/c1cc(C)n(-c2ccc(Br)cc2)c1C` displayed a z-score of -0.715.

In turn, `O=C(Nc1ccc2c(c1)OCO2)N1CCN(C/C=C/c2ccccc2)CC1` had a z-score of -0.663.

Turning to `Cc1ccc(C)c(NS(=O)(=O)c2ccc(OCC(=O)NCc3ccco3)cc2)c1`, the z-score amounted to 0.0658.

Regarding `COc1ccc(Cn2nnnc2C(c2ccccc2OC)N2CCC(C(N)=O)CC2)cc1` (stereo not given), the z-score was -0.0593.

The molecule `CC(=O)Nc1cccc(NC(=O)C2CCCN2C(=O)Nc2ccccc2C)c1` (stereo not given) returned a z-score of 0.294.

`Cc1ccc(S(=O)(=O)C2CCOC2=O)cc1` (stereo not given) yielded a z-score of 0.328.

The molecule `Cc1c(N=C2NC(=O)/C(=C/c3cccc([N+](=O)[O-])c3)S2)c(=O)n(-c2ccccc2)n1C` displayed a z-score of -0.318.

As for `CC(NCc1ccc2c(c1)OCO2)C(=O)N1CCc2ccccc21` (stereo not given), the z-score is -1.01.

In the case of `CCC(CC)c1nnc(NC(=O)[C@@H](NC(=O)c2cccc(C)c2)C(C)C)s1`, the z-score was -0.254.

In turn, `Cc1nc(C)c(C(=O)C2=C(O)C(=O)N(CCCn3ccnc3)C2c2ccccc2)s1` (stereo not given) came in with a z-score of -0.201.
